# Among all 270,000 compounds or so, about 5,800 (2.1%) were called active. The shares of active, inactive and inconclusive entries below differ from those in the screen. The call rests on the fitted dose curve; in most records, active means well fitted inhibition curve with a large enough effect; inconclusive means small, poorly fitted or top-dose-only effect; inactive means flat fitted curve, though single readings scatter. Potencies beside an inconclusive call are fits to weak or partial responses and may not hold up.
# Molecular target: Microtubule-associated protein tau (Homo sapiens) (UniProt P10636)
# Chain of UniProt P10636 (P10636 whole entry, looked up): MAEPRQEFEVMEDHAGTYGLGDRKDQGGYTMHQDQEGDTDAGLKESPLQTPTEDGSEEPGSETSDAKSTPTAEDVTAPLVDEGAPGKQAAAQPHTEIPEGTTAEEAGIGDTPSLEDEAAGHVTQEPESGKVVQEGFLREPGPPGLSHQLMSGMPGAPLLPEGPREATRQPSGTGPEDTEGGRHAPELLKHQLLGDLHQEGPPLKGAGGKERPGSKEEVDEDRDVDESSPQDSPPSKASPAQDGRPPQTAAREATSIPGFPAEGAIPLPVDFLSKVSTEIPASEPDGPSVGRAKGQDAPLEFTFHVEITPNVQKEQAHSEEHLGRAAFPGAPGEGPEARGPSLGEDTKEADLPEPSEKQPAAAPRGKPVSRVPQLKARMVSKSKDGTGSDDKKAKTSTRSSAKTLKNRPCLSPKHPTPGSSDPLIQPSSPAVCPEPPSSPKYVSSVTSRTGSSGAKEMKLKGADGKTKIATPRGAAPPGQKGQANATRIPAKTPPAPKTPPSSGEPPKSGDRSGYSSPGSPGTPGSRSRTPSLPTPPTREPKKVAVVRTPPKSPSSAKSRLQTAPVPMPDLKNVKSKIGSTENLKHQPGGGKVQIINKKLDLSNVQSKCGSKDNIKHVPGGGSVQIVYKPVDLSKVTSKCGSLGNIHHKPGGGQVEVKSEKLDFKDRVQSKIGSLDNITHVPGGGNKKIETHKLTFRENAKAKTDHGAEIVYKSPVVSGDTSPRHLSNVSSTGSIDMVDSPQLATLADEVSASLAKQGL
# Experiment: qHTS for Inhibitors of Tau Fibril Formation, Thioflavin T Binding; further: nearly all actives have a fitted effect of over 55% in size
# Details: recombinant tau K18 P301L, heparin-induced fibrillization, ThT fluorescence; series mostly up to 57.4 µM; activity, negative = inhibition: at the top concentration
# How it was run: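 ThT emission at 510 nm, taken 1 hr after adding 30 uM dye, quantifies aggregates formed when 20 uM heparin acts on human tau K18 P301L for 6 hr at 37 C.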
# On the % scale 0 is the no-effect control and ±100 the full control effect; potency means the concentration at half of the fitted maximal effect; tags describe the fitted curve by direction and shape.
SMILES,Potency,"activity, negative = inhibition"
Cc1ccc(Oc2ccc(N)cc2)cc1,"inconclusive: 6.31 µM [inhibitor, partial curve]",
Cc1cc2c(cc1C)CN(c1ccccc1)C2,"inconclusive: 2.82 µM [inhibitor, full curve]",
COC(=O)c1ccccc1N=Nc1c(C)n[nH]c1C,"inconclusive: 39.8 µM [inhibitor, single point]",
O=c1c(-c2ccccc2)c1-c1ccccc1,"inconclusive: 35.5 µM [inhibitor, single point]",
Cc1ccc(Cn2c(=O)n(Cc3ccc(C(=O)NC4CCN(Cc5ccccc5)CC4)cc3)c(=O)c3ccccc32)cc1,,inactive: -6.53%
COc1ccc2c(c1)-c1c(sn(-c3ccccc3)c1=S)C(C)(C)N2,"inconclusive: 17.8 µM [inhibitor, single point]",
CCc1cccc(NC(=O)C2CCCN2S(=O)(=O)c2ccc3nc(-c4ccccc4)[nH]c3c2)c1 (centres undefined),,inactive: 15.8%
Cc1cc(=O)n2nc(N3CCC(C(=O)NCCc4ccccc4)CC3)sc2n1,"inconclusive: 5.01 µM [inhibitor, partial curve]",
COc1ccc(N2CCN(CC(=O)Nc3nc4c(s3)CC(C)CC4)CC2)cc1 (centres undefined),"inconclusive: 12.6 µM [inhibitor, partial curve]",
COc1c(C)cccc1C(=O)Nc1ccc(-c2nc3ccccc3s2)c(Cl)c1,"inconclusive: 3.16 µM [inhibitor, partial curve]",
CCn1c2ccccc2c2cc(NC(=O)CSc3nnc(-c4cccc(Cl)c4)o3)ccc21,"inconclusive: 39.8 µM [inhibitor, single point]",
Nc1nn(-c2ccccc2)nc1C(=O)OCc1ccc(Cl)cc1,"inconclusive: 1.78 µM [inhibitor, full curve]",
COc1ccc(-c2nc3sc(CCNC(=O)C(=O)Nc4cccc(NC(C)=O)c4)c(C)n3n2)cc1,"inconclusive: 0.447 µM [inhibitor, full curve, poor fit]",
O=C(CSc1ncc(-c2ccccc2)n1C1CCCC1)N1CCc2ccccc21,"inconclusive: 17.8 µM [inhibitor, partial curve]",
Nc1ccc2nc(-c3ccccc3)sc2c1,"inconclusive: 14.1 µM [inhibitor, partial curve]",
O=[N+]([O-])c1ccc2c(c1)N([O-])C1(CCCCC1)[N+]2=O,active: 3.55 µM,
Cc1ccc(N2C(=O)c3ccc(C(=O)N4CCN(c5ccc(C)c(C)c5)CC4)cc3C2=O)cc1,,inactive: -5.05%
Cc1cccc(C2c3[nH]c4ccccc4c3CCN2C(=O)Cc2nc(-c3ccccc3)n[nH]2)n1 (centres undefined),"inconclusive: 10 µM [inhibitor, partial curve]",
Cc1cccc(NC(=O)Cn2c(O)c(N=NC(=O)c3ccccc3O)c3ccccc32)c1,active: 15.8 µM,
CCOc1ccc(Cn2ccnc2CCl)cc1[N+](=O)[O-],"inconclusive: 14.1 µM [inhibitor, partial curve]",
Cc1ccc2c(c1)c(C)c(C)n2CC(O)Cn1nc(C)c(Br)c1C (centres undefined),"inconclusive: 22.4 µM [inhibitor, partial curve, poor fit]",
COc1ccc(C2=C(N3CCN(c4cccc(C)c4C)CC3)c3ccccc3C2=O)cc1,"inconclusive: 8.91 µM [inhibitor, partial curve]",

SMILES,Potency,"activity, negative = inhibition"
Cc1cc(O)c(C=Nc2cccc(Cl)c2)c(=O)o1,"inconclusive: 20 µM [inhibitor, partial curve]",
CCN1Cc2c(/C=C/c3ccccc3)nc3ccc(OC)cc3c2N(c2cccc(Cl)c2)C1,"inconclusive: 20 µM [inhibitor, partial curve]",
COc1cc(O)c(C(=O)c2ccccc2)cc1O,active: 7.94 µM,
C[C@@H](C(=O)O)[C@@H]1C[C@@]1(C)[C@@H](NC(=O)OCc1ccccc1)c1ccccc1,inactive,
CC1=C(c2ccc(F)cc2)S(=O)(=O)N=C1N1CCC(C(=O)NCCc2cccc(C)c2)CC1,"inconclusive: 5.01 µM [inhibitor, partial curve, poor fit]",
O=C(CN1C(=O)CCC1=O)Nc1nc(-c2ccccn2)cs1,,inactive: -5%
CCN(c1ccccc1)c1nc(C#N)nc(N(CC)c2ccccc2)n1,"inconclusive: 5.62 µM [inhibitor, single point]",
C/C(=N/NC(=S)Nc1ccccc1)c1ccc2c(c1)OCO2,"inconclusive: 15.8 µM [inhibitor, partial curve]",
O=C(Nc1ccccc1Cl)N1CCC(CN2CCCC2)CC1,,inactive: 0.871%
Cc1nn(C)c(Oc2cccc(C(F)(F)F)c2)c1C=O,,inactive: -0.903%
COc1ccc(-c2cn3nc(N4CCCC(C(=O)NCc5ccc(Cl)cc5)C4)sc3n2)cc1 (centres undefined),"inconclusive: 2.51 µM [inhibitor, full curve]",
Cc1c(C(=O)NCc2ccco2)cccc1[N+](=O)[O-],,inactive: -8.33%
O=C(NCCNc1ccc([N+](=O)[O-])cc1)c1ccc(Cl)cc1,active: 8.91 µM,
Cc1ccc(-c2cc3ccccc3nc2N2CCCC2)cc1,"inconclusive: 17.8 µM [inhibitor, partial curve]",
Cc1cc(C)c2ccc(NN)nc2c1O,"inconclusive: 14.1 µM [inhibitor, partial curve]",
CC1=C(C(=O)NCc2ccccc2F)C2(CCCCC2)OC1=O,,inactive: -16.9%
CCC1=[N+](CC(=O)c2ccc(C)cc2)CCn2cccc21,"inconclusive: 15.8 µM [inhibitor, partial curve]",
NS(=O)(=O)c1cccc(NC(=O)CSc2nc3nc(-c4cccs4)cc(C(F)(F)F)c3c(=O)[nH]2)c1,"inconclusive: 28.2 µM [inhibitor, partial curve]",
O=C(COc1ccc(Br)cc1)N/N=C1/SCC(=O)N1Cc1ccccc1,"inconclusive: 12.6 µM [inhibitor, partial curve]",
Cc1c(C(=O)COC(C)(C)C)[nH]c2ccccc12,,inactive: -21.4%
COc1ccc(NC(=O)c2cc3c(s2)-c2c(C)cccc2OC3)cc1Cl,"inconclusive: 0.891 µM [inhibitor, full curve]",
O=C(/C=C/c1ccccc1)NCC(=O)N/N=C/c1ccccc1[N+](=O)[O-],"inconclusive: 5.01 µM [inhibitor, partial curve]",

# Source: PubChem BioAssay AID1460 (National Center for Advancing Translational Sciences (NCATS), 2008)
